About 1,200 (2.5%) of roughly 48,000 compounds were called active. Another 2% or so got no clear call; they are omitted.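 How the source made its calls: active means activation of at least 60% and not above a set upper limit (about 1 call in 100 departs from these limits); inconclusive means activation of 40% to 60%, or above that upper limit; inactive means activation under 40%.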 Some of the results follow. Where a SMILES comes first, the peptide text is derived from it. [ ]: non-standard residue; d: D form. The star is where a group is joined. Sta = CC(C)C[C@H](N)[C@@H](O)CC(=O)O; Isovaleryl = CC(C)CC(=O)*
The compounds below were run against Probable G-protein coupled receptor 32 (Homo sapiens) (UniProt O75388) (assay: qHTS for Agonists of Human Resolvin D1 Receptor DRV1). Settings: CHO-K1 GPR32 beta-arrestin PathHunter luminescence, 90 min; at 76.9 µM; stronger effect = higher value; zero percent set by DMSO-only wells.
Method in brief: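 CHO-K1 cells stably expressing ProLink-tagged GPR32 and Enzyme Activator-tagged beta-arrestin were seeded at 2,500 cells/well overnight, exposed to compounds for 90 min at 37 °C, then read by beta-Gal complementation chemiluminescence after 1 h detection reagent.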
Further: 0% is about no effect.

Sequence of UniProt O75388 (O75388 whole entry, looked up): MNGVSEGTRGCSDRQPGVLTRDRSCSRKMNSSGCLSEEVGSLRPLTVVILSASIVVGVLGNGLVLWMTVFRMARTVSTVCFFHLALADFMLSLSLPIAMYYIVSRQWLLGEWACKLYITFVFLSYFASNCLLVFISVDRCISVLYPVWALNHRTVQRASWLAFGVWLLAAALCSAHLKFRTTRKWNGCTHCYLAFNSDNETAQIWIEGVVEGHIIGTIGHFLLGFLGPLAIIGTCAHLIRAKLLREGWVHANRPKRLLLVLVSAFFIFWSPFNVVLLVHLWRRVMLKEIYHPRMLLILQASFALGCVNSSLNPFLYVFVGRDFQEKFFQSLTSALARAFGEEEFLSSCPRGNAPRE

Row | Compound | activation
1 | O=c1c(=O)n(Cc2c(F)cccc2Cl)ccn1Cc1ccccc1 | inactive: -19.6%
2 | COc1ccc(N2CCN(C3C(=O)c4ccccc4N3C(C)=O)CC2)cc1 (stereo not given) | inactive: -16.4%
3 | Cc1ccc(-c2c3c(=O)n(C)c(=O)n(C)c3cn2-c2cc(C)ccc2O)cc1 | inactive: -19.9%
4 | COc1cccc(NC(=O)Cn2c(=O)n(CC(=O)NCCc3ccccc3)c(=O)c3sccc32)c1 | inactive: -16.5%
5 | Cc1c(Cl)cccc1NC(=O)CSc1nc(=O)n(Cc2cccnc2)c2c1CCC2 | inactive: -1.39%
6 | Cc1cc(Cl)ccc1NS(=O)(=O)c1ccc2c(c1)CC(C)N2C(=O)C1CCC1 (stereo not given) | inactive: 10.6%
7 | O=C1CC(c2nc(-c3ccccc3)no2)CN1c1ccc2c(c1)OCCO2 (stereo not given) | inactive: 11.6%
8 | COC(=O)C1CCN(C(c2ccccc2)c2sc3nc(-c4ccco4)nn3c2O)CC1 (stereo not given) | inactive: -8.31%
9 | Cc1c(Cl)cccc1-n1ncc(C(=O)Nc2ccc(F)cc2F)c1C1CCN(C(=O)OC(C)(C)C)CC1 | inactive: -10.1%
10 | Cc1ccc(Cn2cc(S(=O)(=O)c3ccc(C)cc3)c(=O)c3cc(F)c(N4CCCC4)cc32)cc1 | inactive: 3.72%
11 | Cc1ccc(CNC(=O)C2CCN(C(=O)c3cnn(-c4ccccc4)c3-n3cccc3)CC2)cc1 | inactive: 1.56%
12 | CCOc1cccc(NC(=O)c2ccc(F)c(S(=O)(=O)N(CC)c3cccc(C)c3)c2)c1 | inactive: -27.8%
13 | Cc1cc(C)cc(NC(=O)Cn2c3ncccc3c(=O)n2-c2ccc(C)c(C)c2)c1 | inactive: -21.7%
14 | N[C@H](C(=O)O)c1cc(O)cc(O)c1 | inactive: 12.5%
15 | O=C(NCc1ccccc1)c1ccc2c(c1)nc1n2CCCCC1 | inactive: -16.8%
16 | O=C(Cn1cnc2nc3c(cc2c1=O)CCCC3)N1CCN(c2ccccc2)CC1 | inactive: -6.09%
17 | Cc1ccc(CSc2ncc(Cl)c(C(=O)Nc3sc4c(c3C(N)=O)CCCC4)n2)cc1 | inactive: -2.44%
18 | Cc1cccc(N2CCN(Cc3nnc(-c4ccc5c(c4)OCO5)o3)CC2)c1C | inactive: -21.2%
19 | Cc1cccc(C#Cc2ccccc2)n1 | inactive: -9.3%
20 | CCc1nn2c(=O)cc(COc3ccc(/C=C(\C#N)C(=O)Nc4ccc(C)cc4)cc3)nc2s1 | inactive: -0.0994%
21 | Cc1ccc(-c2cc(C(F)(F)F)c(C#N)c(SCC(=O)O)n2)cc1 | inactive: -20.8%
22 | CCc1ccc(NC(=O)Cn2c(=O)n(CC3CCCO3)c(=O)c3cc(OC)c(OC)cc32)cc1 (stereo not given) | inactive: -3.73%
23 | c1ccc(C(NCc2cccnc2)(c2ccccc2)c2ccccc2)cc1 | inactive: -24.8%
24 | O=C(Cn1c(=O)c2cccn2c2ccc(F)cc21)N1CCN(c2ccccc2)CC1 | inactive: -22.8%
25 | Cc1ccccc1CNC(=O)C(=O)NCC(c1cccs1)S(=O)(=O)c1ccc(Cl)cc1 (stereo not given) | inactive: -0.846%
26 | O=C(CN1C(=O)C2CCCCN2c2ccc(C(=O)N3CCCC3)cc21)NCc1cccc(F)c1 (stereo not given) | inactive: -23.3%
27 | COc1ccc(NC(=O)Nc2ccccc2OCc2cc(=O)n3ccccc3n2)c(OC)c1 | inactive: -4.77%

Row | Compound | activation
28 | CC(C)(C)C1CCC(CC2=C(O)c3ccccc3C(=O)C2=O)CC1 (stereo not given) | inactive: -10.8%
29 | CCC1=C(c2ccc(C)cc2)S(=O)(=O)N=C1N1CCC(C(=O)NCc2ccccc2Cl)CC1 | inactive: -16.6%
30 | Cc1ccc(C)c(N2CCN(CCCNC(=O)c3nnc(Cc4ccc(F)cc4Cl)o3)CC2)c1 | inactive: 1.48%
31 | CCOC(=O)c1cc(S(=O)(=O)N2CCN(c3ccc(F)cc3)CC2)[nH]n1 | inactive: -26.8%
32 | CCCN(CCC)CCNC(=O)C1CCCN(S(=O)(=O)c2cccc3nsnc23)C1 (stereo not given) | inactive: -18.9%
33 | CCCCCOC(=O)c1ccc(OC(=O)c2sc3ncn(Cc4cccc(F)c4)c(=O)c3c2C)cc1 | inactive: -3.53%
34 | COc1ccc(OC)c(CNc2sc3c(c2C(=O)Nc2cc(OC)ccc2OC)CCCC3)c1 | inactive: -8.17%
35 | COc1ccc(OC)c(NC(=O)N2CCC(CN3CCCCC3)CC2)c1 | inactive: 2.48%
36 | CC(C)CC(=O)N[C@H](C(=O)N[C@H](C(=O)N[C@@H](CC(C)C)[C@@H](O)CC(=O)N[C@@H](C)C(=O)N[C@@H](CC(C)C)[C@@H](O)CC(=O)O)C(C)C)C(C)C (Isovaleryl-VV[Sta]A[Sta]-OH) | inactive: 10.1%
37 | CCOc1cc2[nH]c(=O)n(CCCC(=O)N3CCN(c4cccc(Cl)c4)CC3)c(=O)c2cc1OCC | inactive: -17.9%
38 | Cc1nc(SCc2ccc(Cl)cc2)c(C#N)c(C)c1Cl | inactive: -9.88%
39 | CCOC(=O)c1cnc2ccc(OCC)cc2c1Nc1cc(Cl)c(OC)cc1OC | inactive: 24.9%
40 | CC(=O)N1CCCc2cc(S(=O)(=O)N3CCCC(C(=O)Nc4cccc(Cl)c4C)C3)ccc21 (stereo not given) | inactive: -1.21%
41 | CC(C)Cn1cc(C(=O)N2CCN(c3cccc(Cl)c3)CC2)c2c3ccccc3n(C)c2c1=O | inactive: -23.3%
42 | Cc1ccc(C)c(OC(=O)CSc2nnc(-c3ccc4c(c3)OCO4)o2)c1 | inactive: -14.9%
43 | COC(=O)c1ccc(Cn2c(SCC(=O)N(C)c3ccccc3)nc3ccccc32)cc1 | inactive: -14.8%
44 | CCOc1cc(C(=O)Nc2ccc(S(=O)(=O)Nc3cc(OC)nc(OC)n3)cc2)cc(OCC)c1OCC | inactive: 29.7%
45 | CCCCc1ccc(NC(=O)c2ccc3c(c2)CCN3S(=O)(=O)c2ccccc2)cc1 | inactive: -5.55%
46 | O=C(Nc1nnc(S(=O)(=O)N2CCCCCC2)s1)c1ccccc1Br | inactive: 20.4%
47 | COc1ccc2c(c1)CC(C(=O)NCCN1CCN(c3cccc(C)c3C)CC1)CO2 (stereo not given) | inactive: -14.4%
48 | COc1ccc2c(c1)c1c(c(=O)n(Cc3ccccc3)c(=O)n1CC(=O)Nc1ccc(C)cc1C)n2C | inactive: 4.08%
49 | CC(C)CCNC(=O)Nc1cc(C(=O)NCc2cccc(F)c2)ccc1N1CCCC1 | inactive: -22%
50 | O=C(C1CCN(S(=O)(=O)Cc2ccccc2)CC1)N1CCN(c2cccc(Cl)c2)CC1 | inactive: -2.49%
51 | COc1ccc(C)cc1NC(=O)Cn1c(=O)oc2cc(S(=O)(=O)NCc3ccccc3)ccc21 | inactive: -0.515%
52 | CSc1cccc(NC(=O)C2CCN(S(=O)(=O)c3ccc4[nH]c5c(c4c3)CCCCC5)CC2)c1 | inactive: 5.2%
53 | Cc1ccc(NC(=O)C2CCCN(S(=O)(=O)c3c(C)n[nH]c3C)C2)cc1C (stereo not given) | inactive: 16%
54 | CCOC(=O)c1ccc(CN(Cc2ccc(C)cc2)S(=O)(=O)c2ccc(NC(C)=O)cc2)cc1 | inactive: -18.3%

Row | Compound | activation
55 | c1ccc(CCNc2nc(-c3ccccc3)cs2)cc1 | inactive: 9.66%
56 | CCn1cc2nc(SCc3ccc(F)cc3)n(Cc3ccc(Cl)cc3)c(=O)c2n1 | inactive: 2.74%
57 | CCCS(=O)(=O)N1CC(=O)N(c2ccc(Cl)cc2)C(C)(C(=O)NC2CCCC2)C1 (stereo not given) | inactive: 0.402%
58 | COCCCNC(=O)CN1C(=O)CSc2ccc(S(=O)(=O)N3CCOCC3)cc21 | inactive: -6.95%
59 | CC(=O)Nc1ccc(Nc2nnc(-c3ccc(C)c(S(N)(=O)=O)c3)c3ccccc23)cc1 | inactive: -2.13%
60 | Cc1ccc(NC(=O)C(=O)NCCc2csc3nc(-c4ccccc4C)nn23)cc1Cl | inactive: 5.74%
61 | O=C(Nc1ccc(S(=O)(=O)N(Cc2ccccc2)c2ccccc2)cc1)c1ccc([N+](=O)[O-])cc1 | inactive: -5.12%
62 | O=C(NCc1ccc2c(c1)CCN2C(=O)c1ccccc1)c1ccco1 | inactive: -27.3%
63 | Cc1ccc(NC(=O)c2oc3ccc(S(=O)(=O)N4CCC5(CC4)OCCO5)cc3c2C)c(C)c1 | inactive: 24%
64 | COCCn1c(SCC(=O)Nc2ccc(C(F)(F)F)cc2)nc2c([nH]c3ccccc32)c1=O | inactive: -36.1%
65 | COc1cccc(N2CCN(C(=O)c3cc4c(=O)n(Cc5ccco5)ccc4nc3C)CC2)c1 | inactive: -30.3%
66 | O=C(NCc1ccccc1Cl)c1ccc(NC(=O)N2CCSc3ncccc32)cc1 | inactive: -13.7%
67 | CCN1CCN(CCCNC(=O)c2ccc3nc(Cc4ccccc4)oc3c2)CC1 | inactive: -19.4%
68 | COc1ccc(N2CCN(C(=O)c3cc(S(=O)(=O)N4CCC(C)CC4)cn3C)CC2)cc1 | inactive: -0.755%
69 | O=C(NCC(c1ccc2c(c1)OCO2)N1CCOCC1)c1c(F)cccc1F (stereo not given) | inactive: -19.8%
70 | COc1ccc(-n2ccnc(NCc3ccc(C)cc3)c2=O)cc1OC | active: 64.8%
71 | Cc1cccc(N2CCN(c3nc4ccc(C)cc4n4cnnc34)CC2C)c1 (stereo not given) | inactive: -16.7%
72 | CCOC(=O)C12CC1/C(=N/O)c1ccccc1O2 (stereo not given) | inactive: -6.92%
73 | CCN(C(=O)C1CCN(c2ncnc3c2nc2n3CCCCC2)CC1)c1cccc(Cl)c1 | inactive: -9.58%
74 | COc1ccc(N(CC(=O)N2CCN(c3ccccc3F)CC2)S(=O)(=O)c2c(C)n[nH]c2C)cc1 | inactive: -0.35%
75 | Cc1cccc(NC(=O)CCNS(=O)(=O)c2cccc3nsnc23)c1C | inactive: 19.5%
76 | CCn1cc(C(=O)NCCc2ccc(Cl)cc2)c(=O)c2cc(S(=O)(=O)N3CCC(C)CC3)ccc21 | inactive: -25.7%
77 | O=C(NC1CCCCC1)c1ccc2c(c1)N(Cc1ccc(Cl)cc1)C(=O)c1ccccc1S2=O (stereo not given) | inactive: -17.8%
78 | O=C(c1ccc(F)cc1)n1nc(-c2ccccc2)nc1NCc1ccco1 | inactive: -10.6%
79 | CCOc1ccccc1N(CC)C(=O)c1noc2c1COc1ccc(C)cc1-2 | inactive: -16.9%
80 | Cc1cccc(C(=O)Nc2ccc(C(=O)OCc3cc(=O)n4nc(CC(C)C)sc4n3)cc2)c1 | inactive: -21.8%
